Drawing on article PMC12136788, this text covers binding signal for 22 molecules.

T1: UNK ZnF1-3 (human, UniProt Q9C0B0 31-174)
T1 sequence: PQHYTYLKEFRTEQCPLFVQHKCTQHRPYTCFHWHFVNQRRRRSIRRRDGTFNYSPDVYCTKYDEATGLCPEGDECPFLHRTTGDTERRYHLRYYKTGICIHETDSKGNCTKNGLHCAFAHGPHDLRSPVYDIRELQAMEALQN

B1: chr4:103533647:103533648:+_ENSG00000109320_ENST00000505458|hu_mus|FALSE|FALSE (ssRNA)
RNA: GGGAGUUCUACAGUCCGACGAUCCCCAGACCCAACUUCUGUGCCAGAGUGGCCCAGUUUUUGUCUGGAUCAGGAAUUUCCAGCAGUUUGCAGAGUUGUAGCCUCGUGUCUUCUGUCAGCUGCUUCAUGUCCCCUUGUGGUAGUCAACAGAGGAUUGAGCAUCA
B2: chr1:163112212:163112213:-_ENSG00000143248_ENST00000313961|hu_hu|hu_hu_hu_mus_False|28_38 (ssRNA)
RNA: GGGAGUUCUACAGUCCGACGAUCUUUUAUUAUCAGUAAGAGUGAGUUACAUACUAGGCAAAGUAUUGGAUACAAUAAUCAGGAAACAAACACUAUUUUUCUUGAAUUUAAAAUAUAAUGAGCGAAGUGCUGGCACAGGACUUACAACAGAGGAUUGAGCAUCA
B3: chr3:176767854:176767855:-_ENSG00000177565_ENST00000430069|hu_hu|hu_hu_hu_mus_False|18_108 (ssRNA)
RNA: GGGAGUUCUACAGUCCGACGAUCGACAUCCUUGUUGCUGGGCACGUCCUGCCCUCCUUCCCGUAUGCAGUGUCUAAGCACGAGCUGCGUAGGGCCACUCGUGCUGUUCUCACUGAGAUUCCAUAUUCUUGCCGUGGAGUCUCCCAACAGAGGAUUGAGCAUCA
B4: chr1:145598734:145598735:-_ENSMUSG00000018199_ENSMUST00000159879|mus_mus|motif|central (ssRNA)
RNA: GGGAGUUCUACAGUCCGACGAUCUGGUCUGAUAUUUUUAUUGCAAGAGUCUCAAGGUUUUAAUACUAUCUUCAAUUCUCGGAAUGACUUUGCUCAUAGGUUUGAACCAAAACAUUUGCCUUUUGCCUCAAAAAUUUCCCUUAACAACAGAGGAUUGAGCAUCA
B5: 104393069_104396071_385_CDS_ENSMUSG00000020687_ENSMUST00000093923|mouse|control|control (ssRNA)
RNA: GGGAGUUCUACAGUCCGACGAUCAGUGAAGCAAGCUGAAUCUCCAAACUCAGUGACAAGGUCGUCAUGGCUUUUCUGCUUAUUAAACACUCCACCAGAUAAGAUCUGUUCCCCUUCUGCAAGCUUGCUGAGGUCAACACAACACAACAGAGGAUUGAGCAUCA
B6: 34915464_34918627_154_CDS_ENSG00000159140_ENST00000381679|human|control|control (ssRNA)
RNA: GGGAGUUCUACAGUCCGACGAUCCACUAUUUCUUCAUUUGGUAGACUCCUGGCAGAGGCAGCUGCAUCACCCGCCUGGUUUCCUUCAAUGGGUGUAUUUGUUUCACCAUUCAGCUGGCCUUCAUUCCUUCCACUGGAAAGCUCCAACAGAGGAUUGAGCAUCA
B7: 76003592_76003712_12668_CDS_ENSMUSG00000022565_ENSMUST00000071869|mouse|control|control (ssRNA)
RNA: GGGAGUUCUACAGUCCGACGAUCUGAGCGGUCAAUGAGGUUCUUGGUGAUGGCGUCGUCGAUGUCAUACUGGCGACCAGAGCGGCGGUCGAUGAUCAUAGACUUGACGACGCCAUCUGAGGAGGAGAUGGUGAUCUCUUCCCACAACAGAGGAUUGAGCAUCA
B8: chr1:244855233:244855234:+_ENSG00000121644_ENST00000302550|hu_mus|hu_hu_hu_mus_True|78_78 (ssRNA)
RNA: GGGAGUUCUACAGUCCGACGAUCCAUCAGAUGGUAGGCGUUGCCCUUAUACUCUUUUCCCAGUUCUUCUACAAUUUUCUCUAUAUCAUCUUCUAGAAAGUCCGUACUUCCUAGAACAACAGCUUCUUUAAAUUUAAAUGUUUCCAACAGAGGAUUGAGCAUCA
B9: chr20:57486015:57486016:+_ENSG00000087460_ENST00000306090|hu_hu|FALSE|FALSE (ssRNA)
RNA: GGGAGUUCUACAGUCCGACGAUCGUGGCCUUUUUUCCUUUUUCUGUAGGCCGCCUUAAGCUUUCUAAAUUUGGAACAUCUAAGCAAGCUGAAGGGAAAAGGGGGUUUCGCAAAAUCACUCGGGGGAAGGGAAAGGUUGCUUUGCAACAGAGGAUUGAGCAUCA
B10: chr20:57015987:57015988:+_ENSG00000124164_ENST00000520497|hu_hu|motif|central (ssRNA)
RNA: GGGAGUUCUACAGUCCGACGAUCUCCAUAACCUUCUUAACUUCGGUGUCAUCCAAAGAAGAACUCAGAGACUUAGACACGGUUGGUGUUUCUGUCUUUGAUGCAGUUGUGGAUAUAAUUUUAUUUAUUUCUACAUCAUGCAGACAACAGAGGAUUGAGCAUCA
B11: chr1:231700301:231700302:+_ENSG00000116918_ENST00000366639|hu_mus|FALSE|FALSE (ssRNA)
RNA: GGGAGUUCUACAGUCCGACGAUCGUCGGCCACGCCCAGCAGGUAGUCAACAGGGGUGAGCUUCAGUCUCCAUGUAACCAGCUGCUUCUCUUGUCCUUCCGCGGGAGGAGUCUUGCUCUCUUUCCCACUGUCUUCUGCUGUAAACAACAGAGGAUUGAGCAUCA
B12: chr19:10649910:10649911:-_ENSMUSG00000024666_ENSMUST00000025568|mus_mus|motif|central (ssRNA)
RNA: GGGAGUUCUACAGUCCGACGAUCCAUCUUCUGCCUGAUUUGUGGGACUCCCAAGGGUACAUUCCACAGUUCCGAAGAAAAUGACGGCUGGUUUUCUCUCUGCCCAGAACUCCAGGAGAGAUGUUUAGUUUUUCCAAAUCGGAGCAACAGAGGAUUGAGCAUCA
B13: chr8:117878989:117878990:-_ENSG00000164754_ENST00000297338|hu_hu|hu_hu_hu_mus_True|98_98 (ssRNA)
RNA: GGGAGUUCUACAGUCCGACGAUCCCAGAGGCCCUCGUUUACUGAGAACAAAAUGUGCGUAGAACAUUUUUCUUAUUUGCUAUGAAAUAAGAAGAAACCUGGAUCUCGGCGGGGAGCCGGGAGGGGUGGGUGGCCCGGGGAGGGCAACAGAGGAUUGAGCAUCA
B14: chr5:23948154:23948155:-_ENSMUSG00000028959_ENSMUST00000030800|mus_hu|FALSE|FALSE (ssRNA)
RNA: GGGAGUUCUACAGUCCGACGAUCCAGGGGUGCCACCCCUGCUUCCCGAGCCAGGAUCCUCUCAAGGCAGGGCAUAAACUGCUGUUCCAGGGGCAGGUAGUUCAGUCGCCCAAAGGGCAGGACCAACUUCUGUACCACCUUGCUCAACAGAGGAUUGAGCAUCA
B15: 55168479_55170727_320_CDS_ENSMUSG00000024978_ENSMUST00000061856|mouse|control|control (ssRNA)
RNA: GGGAGUUCUACAGUCCGACGAUCUUCCCAGCUCUGUGGCGUGCAGGAAUAGCAGCACCUUCCCACGAAGGGCCUCUUCCGGCUCAUAAGGCUCUCCUUCCAUUUCAGUGUUGCAGAUCUGAAGAAGGUAGGUUUGAACCCACACAACAGAGGAUUGAGCAUCA
B16: chr17:57762449:57762450:+_ENSG00000141367_ENST00000269122|hu_hu|FALSE|FALSE (ssRNA)
RNA: GGGAGUUCUACAGUCCGACGAUCUUCAUGUUUUUCCAAACGCUGAGCAAGCGAGAUAUUGUCAAAGUUGUCAUAAGCAUCUAUUGAUGUUCGCAGAGCCUGAUAAUCUUCUUCUGUAAUAAAAAGAUUGUUCAAUGAUUCAUUCAACAGAGGAUUGAGCAUCA
B17: chr3:144353948:144353949:-_ENSMUSG00000037062_ENSMUST00000163279|mus_mus|motif|central (ssRNA)
RNA: GGGAGUUCUACAGUCCGACGAUCAAAACUCCAAAGCCAAGAGACCCUAGUAAGGCCUAGUAUUUAAGUCAUCUGAUUCCGGUUGGGCAGCAAGGUAAAAAGGAGUUUUUACUUUAUUCUUUGGCUAUUGUAUCUAAUAAAUGACAACAGAGGAUUGAGCAUCA
B18: 78449589_78467943_3185_3pUTR_ENSG00000149256_ENST00000278550|human|control|control (ssRNA)
RNA: GGGAGUUCUACAGUCCGACGAUCCUUGGCCACGAAUAACACAAGCAUGCCCUCCAUCAAAGGGGUUCUCCCCGGGGAUUAUGUGCGUGCUGUCCCUGCCCACGAGGAACUUGAUGCGGUCAUAGAAGGAGUGUAGGUUCUGCUCAACAGAGGAUUGAGCAUCA
B19: 134121267_134126191_1650_CDS_ENSG00000145833_ENST00000354283|human|control|control (ssRNA)
RNA: GGGAGUUCUACAGUCCGACGAUCAUAUGUCACUCUUCGAAGAUUUGUGACCCGACCACUGUUAGCGGCUAACAUGUCAAUCAUUCGACCAGGUGUGCAAACAAUAAUUUCAGCACCUCUUUUCAGCUCAGCAAUCUGCUCACUCAACAGAGGAUUGAGCAUCA
B20: chr15:41871108:41871109:+_ENSG00000092445_ENST00000263798|hu_mus|FALSE|FALSE (ssRNA)
RNA: GGGAGUUCUACAGUCCGACGAUCUCCACCUGCCAGACUCAGACCCUGCCUUUUGAAGUCGGAUCUCUGUAACCUUUUGUCCUUCAGCAUGCCUCAGAGCCCCACAGCCAGUUCCAGGCCUUUGCAGGGUGGGGAAUCAGGAAGCAACAGAGGAUUGAGCAUCA
B21: 118516228_118516348_3273_CDS_ENSG00000019144_ENST00000356063|human|control|control (ssRNA)
RNA: GGGAGUUCUACAGUCCGACGAUCGCAGGCCGAGUUGCCCCCGGUGGAGAUGCUGGUCUCCAUGCUGUCAGAGCUCUCCAGACUCAGCGUAUCAUAGGCGUGCUCACCCUCCUCCCCACGCUCCCGCCCCGCAGGCAGGUGGUGCAACAGAGGAUUGAGCAUCA
B22: chr1:174983830:174983831:-_ENSG00000120333_ENST00000367677|hu_hu|FALSE|FALSE (ssRNA)
RNA: GGGAGUUCUACAGUCCGACGAUCUUCUGGAGCUCAUUUACCAUGUCGCUCGCUGGAUCCCAGAAAGUUGCCCAUGGUCAGCUAAGUGACGGAAGACUAUACGACUAAGCCUCCAGCGCCGCUUCACACCACGCGGACGGGACGCAACAGAGGAUUGAGCAUCA

The other results are listed elsewhere or left out.

The target of this experiment is T1, UNK ZnF1-3. The experiment is described as follows: nsRBNS (natural sequence RNA bind-n-seq); RBNS binding buffer (assumed for nsRBNS): 25 mM Tris pH 7.5, 150 mM KCl, 3 mM MgCl2, 0.01% Triton X-100, 500 ug/ml BSA, 20 U/ml SUPERase-In, 4 C; UNK is unkempt and MSI1 is Musashi-1; names of the RNAs are library labels; protein concentration not given here; high values mean tight binding.
For the molecule B1, the binding signal stood at 0.622 enrichment R. To B2 belongs 2.03 enrichment R; to B3, 0.41 enrichment R; to B4, 0.665 enrichment R. B5 showed a binding signal of 0.958 enrichment R. The result for B6 reads 0.636 enrichment R; that for B7, 0.551 enrichment R; that for B8, 1.26 enrichment R.

As to B9, the binding signal is 1.16 enrichment R. To B10 belongs 0.541 enrichment R; to B11, 2.11 enrichment R. The result for B12 reads 1.4 enrichment R; that for B13, 2.25 enrichment R. For B14, the binding signal was 1.04 enrichment R. Turning to B15, the binding signal worked out at 0.701 enrichment R. To B16 belongs 0.643 enrichment R; to B17, 1.38 enrichment R. Consider B18, for which the binding signal is 1.13 enrichment R. With B19, the binding signal is 0.591 enrichment R. The result for B20 reads 1.21 enrichment R; that for B21, 0.855 enrichment R; that for B22, 0.714 enrichment R.
